Results are given in words; binding and its absence hold for the method and conditions named. For part of these data: In cells and extracts the contact can be indirect. Some binding calls cover weakened binding; strength is not graded here. For part of these data: Sequences can lack the tags named with a protein. Values belong to the molecule of their own block, whether it stands above or below them.
Key:
[1] = target: GFP-SLX4IP (pcDNA5-FRT/TO-GFP-SLX4IP-FL) (human) (UniProt Q5VYV7); experiment: co-IP; GFP-SLX4IP precipitated from siCTRL and siSLX4 U2OS cells (Figure S7E)
[2] = target: GFP-SLX4IP (pcDNA5-FRT/TO-GFP-SLX4IP-FL) (human) (UniProt Q5VYV7); experiment: co-IP; GFP-Trap co-IP, lysates treated with Benzonase (1000 U/ml, lysis buffer without EDTA, with 10 mM magnesium chloride, 1 h 45 min in the cold) or not; wild type and SIM mutants of SLX4IP (Figure S7D)
[3] = target: GFP-SLX4IP (pcDNA5-FRT/TO-GFP-SLX4IP-FL) (human) (UniProt Q5VYV7); experiment: co-IP; GFP-Trap co-IP from whole-cell extracts of HEK293 cells transiently expressing GFP constructs; for Figure 5F cells transfected with siCTRL or siSLX4; lysis buffer 50 mM HEPES-KOH pH 8.0, 100 mM KCl, 2 mM EDTA, 0.5% NP-40 substitute, 4°C
[4] = target: GFP-BLM (EGFP-C1-GFP-BLM) (UniProt P54132); experiment: as above
recombinant Flag-BLM = recombinant Flag-BLM (UniProt P54132); experiment: co-IP; recombinant Flag-BLM and SLX4IP mixed, BLM immunoprecipitation, normal IgGs as negative control; the text calls it a pull-down assay; both purified
[5] = target: GFP-SLX4IP (pcDNA5-FRT/TO-GFP-SLX4IP-FL) (human) (UniProt Q5VYV7); experiment: co-IP; immunoprecipitation of GFP-SLX4IP (GFP-Trap_MA) from U2OS Flp-In T-REx cells with stably integrated GFP-SLX4IP, doxycycline-induced, synchronised in G1 (lovastatin), S (double thymidine), G2 (RO-3306) or M (nocodazole)
[6] = target: T1, GFP-SLX4IP V115K/V116K (human) (UniProt Q5VYV7); experiment: co-IP; SLX4IP point mutants L16K/V17K and V115K/V116K, blots for SLX4, SLX1, MUS81 and XPF; cell line not told in the text shown (Figure S3D)
T1 sequence: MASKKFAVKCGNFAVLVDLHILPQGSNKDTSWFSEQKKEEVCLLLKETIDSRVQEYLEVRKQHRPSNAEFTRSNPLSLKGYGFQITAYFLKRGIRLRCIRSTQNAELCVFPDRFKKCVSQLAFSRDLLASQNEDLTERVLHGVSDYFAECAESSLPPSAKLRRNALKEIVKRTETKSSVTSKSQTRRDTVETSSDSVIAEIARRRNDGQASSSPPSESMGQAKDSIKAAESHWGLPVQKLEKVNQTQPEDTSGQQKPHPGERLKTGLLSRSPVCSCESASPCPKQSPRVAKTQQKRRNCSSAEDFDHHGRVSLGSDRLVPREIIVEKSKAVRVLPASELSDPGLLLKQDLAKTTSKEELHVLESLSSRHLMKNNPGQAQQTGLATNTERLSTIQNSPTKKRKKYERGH

Chains of the proteins cited; added tags and fusions are not shown.
UniProt P54132: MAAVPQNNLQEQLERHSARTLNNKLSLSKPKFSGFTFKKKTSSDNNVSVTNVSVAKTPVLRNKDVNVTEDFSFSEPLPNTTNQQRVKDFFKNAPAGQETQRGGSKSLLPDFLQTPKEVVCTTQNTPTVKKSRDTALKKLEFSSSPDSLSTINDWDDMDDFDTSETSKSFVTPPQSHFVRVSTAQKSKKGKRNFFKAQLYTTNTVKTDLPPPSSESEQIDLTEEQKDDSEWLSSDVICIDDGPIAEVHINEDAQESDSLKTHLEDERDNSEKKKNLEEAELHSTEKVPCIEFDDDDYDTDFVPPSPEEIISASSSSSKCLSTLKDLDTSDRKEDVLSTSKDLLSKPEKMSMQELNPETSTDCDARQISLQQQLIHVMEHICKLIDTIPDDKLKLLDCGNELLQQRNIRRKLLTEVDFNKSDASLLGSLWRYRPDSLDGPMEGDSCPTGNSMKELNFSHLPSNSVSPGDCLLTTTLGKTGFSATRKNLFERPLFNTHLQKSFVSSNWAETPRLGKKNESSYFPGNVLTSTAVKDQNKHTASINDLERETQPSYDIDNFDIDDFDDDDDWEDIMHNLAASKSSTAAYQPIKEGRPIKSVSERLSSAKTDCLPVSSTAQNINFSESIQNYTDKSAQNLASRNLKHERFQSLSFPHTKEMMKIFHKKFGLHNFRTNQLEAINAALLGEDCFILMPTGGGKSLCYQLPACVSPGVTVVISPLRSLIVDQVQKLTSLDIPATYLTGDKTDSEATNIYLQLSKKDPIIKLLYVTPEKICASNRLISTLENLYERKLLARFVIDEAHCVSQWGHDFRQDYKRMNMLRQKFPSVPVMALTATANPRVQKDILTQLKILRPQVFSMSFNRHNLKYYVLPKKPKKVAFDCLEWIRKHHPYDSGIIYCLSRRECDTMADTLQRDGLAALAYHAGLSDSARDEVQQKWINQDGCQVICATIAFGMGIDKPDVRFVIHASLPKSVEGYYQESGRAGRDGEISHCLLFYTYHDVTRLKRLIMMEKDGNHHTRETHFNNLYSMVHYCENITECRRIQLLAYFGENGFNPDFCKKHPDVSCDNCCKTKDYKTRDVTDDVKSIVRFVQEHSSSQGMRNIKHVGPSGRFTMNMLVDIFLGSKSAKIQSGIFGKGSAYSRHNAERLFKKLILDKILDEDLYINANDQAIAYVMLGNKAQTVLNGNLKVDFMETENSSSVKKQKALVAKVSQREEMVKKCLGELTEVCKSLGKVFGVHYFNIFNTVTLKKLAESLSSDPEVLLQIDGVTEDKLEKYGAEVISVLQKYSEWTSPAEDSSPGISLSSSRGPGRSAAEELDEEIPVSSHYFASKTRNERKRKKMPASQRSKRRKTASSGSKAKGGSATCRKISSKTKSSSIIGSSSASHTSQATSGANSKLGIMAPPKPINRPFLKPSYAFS

[7] = target: T2, GFP-SLX4IP L16K/V17K (human) (UniProt Q5VYV7); experiment: as above
T2 sequence: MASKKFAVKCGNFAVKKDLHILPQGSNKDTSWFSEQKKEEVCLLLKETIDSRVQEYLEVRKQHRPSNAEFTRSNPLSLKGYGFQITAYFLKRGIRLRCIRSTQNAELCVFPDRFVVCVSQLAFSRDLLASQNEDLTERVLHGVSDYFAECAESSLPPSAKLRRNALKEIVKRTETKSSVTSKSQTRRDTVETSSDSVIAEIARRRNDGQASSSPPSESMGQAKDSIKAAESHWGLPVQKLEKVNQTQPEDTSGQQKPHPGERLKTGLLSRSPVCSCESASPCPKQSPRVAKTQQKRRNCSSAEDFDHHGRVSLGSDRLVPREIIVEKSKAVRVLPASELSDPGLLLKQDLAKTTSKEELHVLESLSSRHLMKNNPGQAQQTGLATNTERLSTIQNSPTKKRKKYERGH

binding [1]: binds
binding [2]: binds
binding [3]: binds
Molecule: endogenous BLM (from UniProt P54132 1-1417)

binding [4]: binds
Molecule: endogenous SLX4IP (from UniProt Q5VYV7 1-408)

binding (recombinant Flag-BLM): binds
Molecule: recombinant SLX4IP (from UniProt Q5VYV7 1-408)

binding [5]: binds
B1: MUS81 (protein, UniProt Q96NY9 1-551)
chain: MAAPVRLGRKRPLPACPNPLFVRWLTEWRDEATRSRRRTRFVFQKALRSLRRYPLPLRSGKEAKILQHFGDGLCRMLDERLQRHRTSGGDHAPDSPSGENSPAPQGRLAEVQDSSMPVPAQPKAGGSGSYWPARHSGARVILLVLYREHLNPNGHHFLTKEELLQRCAQKSPRVAPGSARPWPALRSLLHRNLVLRTHQPARYSLTPEGLELAQKLAESEGLSLLNVGIGPKEPPGEETAVPGAASAELASEAGVQQQPLELRPGEYRVLLCVDIGETRGGGHRPELLRELQRLHVTHTVRKLHVGDFVWVAQETNPRDPANPGELVLDHIVERKRLDDLCSSIIDGRFREQKFRLKRCGLERRVYLVEEHGSVHNLSLPESTLLQAVTNTQVIDGFFVKRTADIKESAAYLALLTRGLQRLYQGHTLRSRPWGTPGNPESGAMTSPNPLCSLLTFSDFNAGAIKNKAQSVREVFARQLMQVRGVSGEKAAALVDRYSTPASLLAAYDACATPKEQETLLSTIKCGRLQRNLGPALSRTLSQLYCSYGPLT

binding [5]: binds
binding [6]: no binding
binding [7]: no binding
B2: SLX1 (protein, UniProt Q9BQ83 1-275)
chain: MGPAGVAARPGRFFGVYLLYCLNPRYRGRVYVGFTVNTARRVQQHNGGRKKGGAWRTSGRGPWEMVLVVHGFPSSVAALRFEWAWQHPHASRRLAHVGPRLRGETAFAFHLRVLAHMLRAPPWARLPLTLRWVRPDLRQDLCLPPPPHVPLAFGPPPPQAPAPRRRAGPFDDAEPEPDQGDPGACCSLCAQTIQDEEGPLCCPHPGCLLRAHVICLAEEFLQEEPGQLLPLEGQCPCCEKSLLWGDLIWLCQMDTEKEVEDSELEEAHWTDLLET

From article PMC6863466
